Test results: patent US10457682B2, “Small molecules that bind MR1” (OREGON HEALTH & SCIENCE UNIVERSITY, priority 2016, dated 2019)

Target: hpMR1 (UniProt C1ITJ8+Q95460)
Details: for presence among ligands eluted from hpMR1 preparations: tandem mass spectrometry, hpMR1-bac, +EC, +MS

Compound	presence among ligands eluted from hpMR1 preparations	fold lower abundance in hpMR1+MS as compared to hpMR1+EC (extracted ion chromatogram AUC analysis) [fold]
CC(=O)C=Nc1c(NC[C@H](O)[C@H](O)[C@H](O)CO)[nH]c(=O)[nH]c1=O [5-OP-RU, 5-(2-oxopropylideneamino)-6-D-ribityluracil]	eluted and identified in hpMR1+EC and +MS but not hpMR1-bac	
O=c1nc2n(C[C@H](O)[C@H](O)[C@H](O)CO)c3cc(O)ccc3cc-2c(=O)[nH]1 [FO]	most prevalent hpMR1+MS-specific ion in the cluster	
O=c1nc2n(C[C@H](O)[C@H](O)[C@H](O)CO)c(O)c(-c3c[nH]c4ccccc34)nc-2c(=O)[nH]1 [PLIII]	present in both hpMR1+EC and +MS	
Cc1nc2c(=O)[nH]c(=O)nc-2n(C[C@H](O)[C@H](O)[C@H](O)CO)c1O [RL-6-Me-7-OH, reference compound]	eluted and identified in hpMR1+EC and +MS but not hpMR1-bac	2.8
reduced 6-hydroxymethyl-8-D-ribityllumazine [rRL-6-CH2OH]	eluted and identified in hpMR1+EC and +MS but not hpMR1-bac	
